Reference: publication PMC4336329 (PLoS ONE, 2015)
Hit rate of the full screen: of about 310,000 compounds, about 14,000 (4.5%) showed an effect of 50% or more. The effect is printed as a negative number. The list shows a part of the results.

Target: human ether-à-go-go-related gene (hERG) potassium channel (human, UniProt Q12809)
Test: primary screen, population patch clamp on CHO cells stably expressing hERG
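Also: peak tail current of the secondary pulse compared with the same well before compound.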

Sequence of human ether-à-go-go-related gene (hERG) potassium channel (Q12809 whole entry, looked up): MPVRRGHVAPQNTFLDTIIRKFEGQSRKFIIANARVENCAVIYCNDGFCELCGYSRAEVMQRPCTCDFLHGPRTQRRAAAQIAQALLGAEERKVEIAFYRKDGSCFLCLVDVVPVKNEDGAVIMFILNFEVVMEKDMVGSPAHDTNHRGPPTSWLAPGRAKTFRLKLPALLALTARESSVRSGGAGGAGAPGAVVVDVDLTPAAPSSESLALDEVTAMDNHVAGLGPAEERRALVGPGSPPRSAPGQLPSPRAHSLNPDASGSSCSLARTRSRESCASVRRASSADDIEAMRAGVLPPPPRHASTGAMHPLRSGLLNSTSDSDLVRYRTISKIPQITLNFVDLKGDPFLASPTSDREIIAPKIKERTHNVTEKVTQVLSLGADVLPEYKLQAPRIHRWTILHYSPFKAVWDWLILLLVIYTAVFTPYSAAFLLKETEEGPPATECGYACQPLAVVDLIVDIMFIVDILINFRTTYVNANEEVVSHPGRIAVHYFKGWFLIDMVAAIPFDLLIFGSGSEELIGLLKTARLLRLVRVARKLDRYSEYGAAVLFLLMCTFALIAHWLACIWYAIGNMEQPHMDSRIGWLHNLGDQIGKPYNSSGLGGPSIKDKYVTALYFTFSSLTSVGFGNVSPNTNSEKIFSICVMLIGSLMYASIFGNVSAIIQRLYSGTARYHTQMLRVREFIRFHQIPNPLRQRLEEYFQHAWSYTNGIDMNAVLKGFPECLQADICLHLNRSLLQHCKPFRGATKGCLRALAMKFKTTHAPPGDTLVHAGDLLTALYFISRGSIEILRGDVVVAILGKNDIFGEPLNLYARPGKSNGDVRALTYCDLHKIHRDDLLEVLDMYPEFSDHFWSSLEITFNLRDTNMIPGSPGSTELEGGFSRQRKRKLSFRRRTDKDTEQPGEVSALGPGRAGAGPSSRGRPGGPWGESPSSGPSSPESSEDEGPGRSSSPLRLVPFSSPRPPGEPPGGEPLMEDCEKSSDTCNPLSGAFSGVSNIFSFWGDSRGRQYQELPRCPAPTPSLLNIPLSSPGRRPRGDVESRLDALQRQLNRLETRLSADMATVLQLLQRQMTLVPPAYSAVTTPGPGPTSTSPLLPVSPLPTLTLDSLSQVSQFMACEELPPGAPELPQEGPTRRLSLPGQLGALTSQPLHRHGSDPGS

Structure (SMILES) | hERG current change (%, negative = inhibition) at 10uM
Cc1ccc(NC(=O)c2cc([N+](=O)[O-])ccc2N2CCOCC2)cc1S(=O)(=O)N1CCOCC1 | -46%
O=C(NCc1ccc(F)cc1)c1cc(S(=O)(=O)N2CCOCC2)ccc1F | -20.6%
O=P(O)(Cc1ccccc1)Cc1ccccc1 | 18.3%
O=c1c2ccccc2c(C=Nc2ccc(Cl)cn2)c(O)n1-c1cc(Cl)ccc1N1CCOCC1 | 16.9%
COc1cc(/C=C/C(=O)OCC(=O)c2c(N)n(C)c(=O)n(C)c2=O)ccc1OCC#N | -5.23%
C/C(=N\NC(=O)c1cc(-c2ccc(C)s2)nc2ccccc12)c1cccnc1 | -9.41%
O=c1c2c3c(sc2nc2n1CCCC2)CCCCC3 | -8.65%
COc1ccc(-c2cc3ccccc3n2CC(O)CNCCO)cc1.O=C(O)C(=O)O (stereo not shown) | 3.61%
Cc1cc(Cl)c(S(=O)(=O)NC2CCCC2)cc1OCC(N)=O | -4.58%
O=C1CC(N(O)C2CC(=O)N(Cc3ccccc3)C2=O)C(=O)N1Cc1ccccc1 (stereo not shown) | -44.8%
COc1ccccc1/C=C/C(=O)c1c2c(c(C)[nH]c1=O)CCCC2 | -3.23%
CC(C)n1c(C(F)(F)F)nc2cc(C(=O)N3CCCCC3)ccc21 | -41.4%
C=CCn1c2ccccc2c2nnc(SCCN3CCOCC3)nc21 | -10.3%
Cc1ccc(Cn2ncc3c(N4CCOCC4)ncnc32)cc1 | -27.8%
Nc1c(S(=O)(=O)c2cccs2)c2nc3ccccc3nc2n1CCc1ccccc1 | -20.6%
CN(C)S(=O)(=O)c1ccc(S(=O)(=O)N2CCCC(C(=O)NC3CC3)C2)cc1 (stereo not shown) | 9.57%
Cc1cc(C(=O)CSc2nnnn2-c2ccccc2)c(C)n1-c1ccc2c(c1)OCO2 | -4.47%
CCN(CC)S(=O)(=O)c1ccc(N2CCOCC2)c(NS(=O)(=O)c2ccc(C(C)C)cc2)c1 | -6.87%
Cl.OCCN1CCN(CC(O)COc2ccc(-c3ccccc3)cc2)CC1 (stereo not shown) | -45.9%
C=CCSc1nc(N)c(C#N)c(-c2ccc(C)cc2)c1C#N | 4.13%
Cc1nc2ccc(NC(=S)N3CCOCC3)cc2nc1C | 5.88%
Cc1ccc2sc(=O)[nH]c2c1 | 23.4%

Structure (SMILES) | hERG current change (%, negative = inhibition) at 10uM
COc1ccc(OC)c(-n2c(SCC(N)=O)nnc2-c2c[nH]c3ccccc23)c1 | 2.45%
Cc1ccc(N(C(C)C(=O)N2CCCCC2)S(C)(=O)=O)cc1C (stereo not shown) | -8.59%
COc1ccc(Br)cc1CNC(=O)C1CCN(S(=O)(=O)N2CCCC2)CC1 | -36.2%
O=C(COC(=O)/C=C/c1ccc(F)cc1)Nc1cccc(S(=O)(=O)N2CCCC2)c1 | 18.5%
O=C(C1CC1)n1cc(C(=S)N2CCOCC2)c2ccccc21 | -9.19%
O=[N+]([O-])c1ccc(-c2c(-c3ccccc3)ncc3cc(F)ccc23)cc1 | 1.58%
CCN(CC)S(=O)(=O)c1ccc2c(c1)nc(CCC(=O)O)n2CC | 12.3%
CC1(C)CC(C(=O)Nc2ccccc2)C(=O)O1 (stereo not shown) | 9.98%
N/C(=N\OC(=O)c1ccc(Cl)cc1[N+](=O)[O-])c1ccccn1 | 12.8%
Nc1nc(NCCc2ccccc2)nc(NCc2ccccc2)c1[N+](=O)[O-] | 20.4%
Cc1ccc(/C=N/NC(=O)c2csc(C)c2)o1 | 10.6%
Cc1ccc(C)c(NC(=O)CN(C)C(=O)CN2C(=O)NC3(CCc4ccccc43)C2=O)c1 (stereo not shown) | 15.2%
Cn1cnc(C(=O)N2CCN(C(=O)OC(C)(C)C)CC2)c1C(=O)N1CCN(C(=O)OC(C)(C)C)CC1 | 24.4%
CN1CCN(NC(=O)Nc2cccc(F)c2)CC1 | 17.3%
COCC(=O)N1CCC(Oc2ccc(C(=O)NCCc3ncccc3C)cc2)CC1 | 20.5%
CC1(C)N=C(/C=N/O)CN1O | 11.7%
Cc1oc(CC(C)C)c(CN2CCCC2)c1C(=O)O.Cl | -5.47%
Nc1nc(SCC(=O)NCCN2CCOCC2)nc2sc3c(c12)CCC3 | -65.9%
O=C(/C=C/c1cccs1)N1CCCC1 | 33.1%
Cc1cc(/C=C2/NC(=O)NC2=O)c(C)n1-c1ccc(C#N)cc1 | -34.6%
O=C(Nc1cccc(S(=O)(=O)N2CCCCC2)c1)c1cnccn1 | -2.1%
